# From the antibiotic and cytotoxicity screens of Wong et al. (2023)
# Some of the results follow.
# Tests used:
# HSkMC = human skeletal muscle cells; test: cytotoxicity call (relative viability < 0.9); conditions: 10 µM
# HepG2 = test: cytotoxicity call (relative viability < 0.9); conditions: 10 µM
# S. aureus RN4220 = test: growth inhibition call (relative growth <= 0.2); conditions: 50 µM
Structure (SMILES),cytotoxicity call (HSkMC),cytotoxicity call (HepG2),growth inhibition call (S. aureus RN4220)
Cl.[LiH],inactive,inactive,inactive
O=C(Cc1ccccc1)NCCN1CCOCC1,inactive,inactive,inactive
C[C@@H]1CN([C@@H](C)CO)C(=O)CCCn2nncc2CO[C@@H]1CN(C)C(=O)Nc1ccc(C(F)(F)F)cc1,inactive,inactive,inactive
C[C@@H]1CN([C@H](C)CO)C(=O)c2cccc(NC(=O)CCCCCC(=O)Nc3ccccc3N)c2O[C@@H]1CN(C)S(=O)(=O)c1cn(C)cn1,inactive,inactive,inactive
CN(C)Cc1cn(CC[C@@H]2CC[C@H](NS(=O)(=O)c3ccccc3)[C@@H](CO)O2)nn1,inactive,inactive,inactive
C[C@H]1CN([C@@H](C)CO)C(=O)c2cccc(NS(=O)(=O)c3ccccc3)c2O[C@H]1CN(C)Cc1ccc(Cl)c(Cl)c1,inactive,inactive,inactive
COC[C@H]1CN(C(=O)c2ccccn2)N1,inactive,inactive,inactive
O=C(CCCCCNC(=O)OCc1ccc(CO[C@H]2C[C@@H](c3coc4ccccc4c3=O)C=C(C(=O)N3CCN(Cc4ccccc4)CC3)O2)cc1)NO,inactive,inactive,inactive
COc1ccc(S(=O)(=O)N(C)C[C@H]2Oc3cc(C#CC4CCCC4)ccc3S(=O)(=O)N([C@H](C)CO)C[C@@H]2C)cc1,inactive,inactive,inactive
C[C@H](CO)N1C[C@H](C)[C@@H](CN(C)Cc2ccc(C(=O)O)cc2)Oc2c(NC(=O)C3CC3)cccc2C1=O,inactive,inactive,inactive
CCC(=O)N(C)C[C@H]1Oc2ncc(C#C[C@H](C)O)cc2C(=O)N([C@@H](C)CO)C[C@H]1C,inactive,inactive,inactive
C[C@@H]1CN([C@H](C)CO)C(=O)c2cccc(NS(=O)(=O)c3cccs3)c2O[C@@H]1CN(C)Cc1ccc(Cl)c(Cl)c1,inactive,inactive,inactive
C[C@@H]1CCCCO[C@@H](CN(C)CC2CC2)[C@@H](C)CN([C@H](C)CO)C(=O)c2cc(NS(=O)(=O)c3cn(C)cn3)ccc2O1,inactive,inactive,inactive
O=C(O)[C@H](O)[C@@H](O)C(=O)O,inactive,inactive,inactive
C[C@@H]1CN([C@H](C)CO)C(=O)c2cc(NC(=O)Nc3cccc4ccccc34)ccc2O[C@@H](C)CCCCO[C@H]1CN(C)Cc1ccc2c(c1)OCO2,inactive,active,inactive
C[C@H](O)C#Cc1cnc2c(c1)C(=O)N([C@H](C)CO)C[C@H](C)[C@H](CN(C)C(=O)Nc1ccc(C(F)(F)F)cc1)O2,inactive,inactive,inactive
C[C@@H]1CN([C@H](C)CO)S(=O)(=O)c2ccc(C#CCN(C)C)cc2O[C@H]1CN(C)S(=O)(=O)c1cccc(F)c1,inactive,inactive,inactive
Nc1ccc(S(N)(=O)=O)cc1,inactive,inactive,inactive
CC(C)NC(=O)N(C)C[C@H]1Oc2ccc(NS(=O)(=O)c3ccccc3)cc2CC(=O)N([C@H](C)CO)C[C@H]1C,inactive,inactive,inactive

Structure (SMILES),cytotoxicity call (HSkMC),cytotoxicity call (HepG2),growth inhibition call (S. aureus RN4220)
CO[C@@H]1CN(C)C(=O)c2cc(NC(=O)Nc3ccccc3F)ccc2OC[C@@H](C)N(Cc2ccccc2F)C[C@H]1C,inactive,inactive,inactive
COc1ccc(S(=O)(=O)Nc2ccc3c(c2)C(=O)N([C@@H](C)CO)C[C@@H](C)[C@@H](CN(C)C(=O)c2ccccc2)OCCCC[C@@H](C)O3)cc1,inactive,inactive,inactive
C[C@H](CO)N1C[C@H](C)[C@H](CN(C)C(=O)Nc2ccc(F)cc2)OCc2ccccc2-c2c(n(C)c3ccccc23)C1=O,inactive,inactive,inactive
C[C@H]1CN([C@@H](C)CO)C(=O)Cc2cc(NC(=O)C3CC3)ccc2O[C@@H]1CN(C)S(=O)(=O)c1ccc(Cl)cc1,inactive,inactive,inactive
C[C@@H]1CN([C@H](C)CO)C(=O)c2cc(C#CC3(O)CCCC3)cnc2O[C@H]1CN(C)C(=O)C1CCOCC1,inactive,inactive,inactive
COCC(=O)Nc1ccc2c(c1)OC[C@@H](C)N(C(=O)c1ccccc1F)C[C@@H](C)[C@@H](OC)CN(C)C2=O,inactive,inactive,inactive
C[C@@H]1CN([C@@H](C)CO)C(=O)c2cc(NC(=O)CCC(F)(F)F)ccc2O[C@@H](C)CCCCO[C@@H]1CN(C)C(=O)Nc1ccccc1,inactive,inactive,inactive
COc1ccc(NC(=O)N(C)C[C@H]2OCCCC[C@H](C)Oc3ccc(NC(=O)Cc4ccccc4)cc3C(=O)N([C@@H](C)CO)C[C@@H]2C)cc1,inactive,inactive,inactive
C[C@@H]1CN([C@H](C)CO)C(=O)c2cc(NS(=O)(=O)c3ccc(F)cc3)ccc2O[C@@H](C)CCCCO[C@H]1CN(C)C(=O)Nc1ccccc1,inactive,active,inactive
CN1CCN(C(=O)C[C@@H]2CC[C@@H]3[C@@H](COc4ccc(NC(=O)c5ccc(F)c(F)c5)cc4C(=O)N3C)O2)CC1,inactive,inactive,inactive
C[C@H](CO)N1C[C@H](C)[C@H](CN(C)C(=O)Nc2cccc3ccccc23)OCCCC[C@H](C)Oc2ccc(NC(=O)Nc3cccc4ccccc34)cc2C1=O,inactive,inactive,inactive
Cc1noc(C)c1NC(=O)Nc1ccc2c(c1)C(=O)N([C@@H](C)CO)C[C@H](C)[C@@H](CN(C)S(=O)(=O)c1ccccc1)OCCCC[C@H](C)O2,inactive,inactive,inactive
N[C@@H](CSCc1cccc(Br)c1)C(=O)O,inactive,inactive,inactive
C[C@H](CO)N1C[C@H](C)[C@H](CN(C)C(=O)Nc2cccc(C(F)(F)F)c2)OCc2ccccc2-c2c(n(C)c3ccccc23)C1=O,active,inactive,inactive
O=C(C[C@H]1CC[C@H]2[C@@H](COC[C@@H](O)CN2C(=O)c2ccc3c(c2)OCO3)O1)NCCN1CCCC1,inactive,inactive,inactive
COc1c(-c2coc3cc4c(cc3c2=O)CC(O)C(C)(C)O4)ccc2c1C=CC(C)(C)O2 (stereo not drawn),active,active,inactive
C[C@H]1CN([C@@H](C)CO)C(=O)c2cc(C#CCC3CCCC3)cnc2O[C@H]1CN(C)C(=O)c1cnccn1,inactive,inactive,inactive
C[C@H](CO)N1C[C@H](C)[C@H](CN(C)S(=O)(=O)c2ccccc2)Oc2ccc(NC(=O)CCN3CCOCC3)cc2CC1=O,inactive,inactive,inactive
C[C@H]1CCCCO[C@H](CN(C)C(=O)Cc2ccccc2)[C@@H](C)CN([C@@H](C)CO)C(=O)c2cc(NS(=O)(=O)c3ccc(Cl)cc3)ccc2O1,active,inactive,inactive

Structure (SMILES),cytotoxicity call (HSkMC),cytotoxicity call (HepG2),growth inhibition call (S. aureus RN4220)
CC(C)NC(=O)N(C)C[C@@H]1Oc2ccc(NC(=O)Cn3cnnn3)cc2C(=O)N([C@H](C)CO)C[C@@H]1C,inactive,inactive,inactive
C[C@@H]1CN([C@@H](C)CO)C(=O)c2cccc(NC(=O)Nc3cccc4ccccc34)c2O[C@H]1CN(C)C(=O)Nc1cccc2ccccc12,inactive,inactive,inactive
Cc1ccc(S(=O)(=O)N[C@@H]2CC[C@H](CC(=O)NCc3ccc(Cl)c(Cl)c3)O[C@@H]2CO)cc1,inactive,inactive,inactive
COc1ccc2c3c([nH]c2c1)[C@H](CO)N(C[C@]13CCN(CC1)CC1CCCC1)C(=O)Nc1cccc(c1)F,inactive,active,inactive
COc1ccc(S(=O)(=O)N(C)C[C@H]2Oc3cc(C#CC4CC4)ccc3S(=O)(=O)N([C@@H](C)CO)C[C@@H]2C)cc1,inactive,inactive,inactive
CC(C)NC(=O)N(C)C[C@@H]1Oc2ccc(NC(=O)Cn3cnnn3)cc2CC(=O)N([C@@H](C)CO)C[C@H]1C,inactive,inactive,inactive
Cc1cc(CO)c(O)c(CO)c1,inactive,inactive,inactive
C[C@H](CO)N1C[C@H](C)[C@H](CN(C)C(=O)C2CCOCC2)Oc2cc(C3=CCCCC3)ccc2S1(=O)=O,inactive,inactive,inactive
O=C(C[C@@H]1CC[C@@H]2[C@H](COC[C@H](O)CN2C(=O)c2cccnc2)O1)NCc1ccc(-c2ccccc2)cc1,inactive,inactive,inactive
C[C@@H]1CCCCO[C@H](CN(C)C(=O)c2ccncc2)[C@H](C)CN([C@@H](C)CO)C(=O)c2cc(NS(C)(=O)=O)ccc2O1,inactive,inactive,inactive
COc1ccc(CN(C)C[C@H]2OCCCC[C@H](C)Oc3ccc(NC(=O)C4CCCCC4)cc3C(=O)N([C@H](C)CO)C[C@H]2C)cc1,inactive,inactive,inactive
CCC(NC(C)C)C(O)c1ccc(O)c(O)c1.CS(=O)(=O)O (stereo not drawn),inactive,inactive,inactive
COc1cccc(NC(=O)N(C)C[C@@H]2Oc3cc(C#Cc4ccncc4)ccc3S(=O)(=O)N([C@@H](C)CO)C[C@@H]2C)c1,inactive,active,inactive
CCNC(=O)[C@H]1O[C@@H](n2cnc3c(N)nc(NCCc4ccc(CCC(=O)O)cc4)nc32)[C@H](O)[C@@H]1O,inactive,inactive,inactive
C[C@H](CO)N1C[C@H](C)[C@H](CN(C)S(=O)(=O)c2cccs2)Oc2ncc(C#Cc3ccccc3)cc2C1=O,inactive,inactive,inactive
Cc1noc(C)c1S(=O)(=O)Nc1ccc2c(c1)C(=O)N([C@@H](C)CO)C[C@H](C)[C@H](CN(C)C(=O)Nc1ccccc1)O2,inactive,inactive,inactive
Cn1cccc1C(=O)N[C@H]1CN(S(C)(=O)=O)[C@H]2CCCO[C@@H]12,inactive,inactive,inactive
C[C@@H]1CCCCO[C@@H](CN(C)S(C)(=O)=O)[C@H](C)CN([C@@H](C)CO)C(=O)c2cc(NS(=O)(=O)c3cccs3)ccc2O1,inactive,inactive,inactive
